The other results are listed elsewhere or left out.
These compounds were tested on HepG2 (assay: cytotoxicity call (relative viability < 0.9)). Settings: 10 µM.

| SMILES | cytotoxicity call |
| --- | --- |
| CCC[C@@H](O)C#Cc1cnc2c(c1)C(=O)N([C@H](C)CO)C[C@H](C)[C@H](CN(C)C(=O)NC1CCCCC1)O2 | inactive |
| N#CCC1CCNCC1 | inactive |
| C[C@@H]1CN([C@H](C)CO)C(=O)c2cc(NC(=O)Cc3ccccc3)ccc2O[C@@H]1CN(C)S(C)(=O)=O | inactive |
| COc1ccc(NC(=O)Nc2cccc3c2O[C@@H](CN(C)Cc2ccc(C(=O)Nc4ccccc4N)cc2)[C@@H](C)CN([C@H](C)CO)C3=O)cc1 | inactive |
| COc1ccc(-c2cnc3c(c2)C(=O)N([C@@H](C)CO)C[C@H](C)[C@H](CN(C)C(=O)Cc2cccnc2)O3)cc1 | inactive |
| Cc1noc(C)c1S(=O)(=O)N(C)C[C@@H]1OCCCC[C@H](C)Oc2ccc(NS(C)(=O)=O)cc2C(=O)N([C@H](C)CO)C[C@@H]1C | inactive |
| CCCCC/C=C\C/C=C\C/C=C\C/C=C\CCCC(=O)O | inactive |
| C[C@@H]1CN([C@@H](C)CO)C(=O)c2cccc(NC(=O)Nc3cccc4ccccc34)c2O[C@H]1CN(C)S(=O)(=O)c1ccc(Cl)cc1 | inactive |
| C[C@@H]1CN([C@@H](C)CO)C(=O)c2cccc(NC(=O)c3ccc(-c4nccs4)cc3)c2O[C@H]1CN(C)C(=O)Nc1ccc(C(F)(F)F)cc1 | inactive |
| CCCN1C[C@H](C(=O)O)CCC1=O | inactive |
| CC(C)(C)[S@@+]([O-])N1Cc2cc(C(=O)O)nc(-c3ccc(Br)cc3)c2[C@H]1CCO[Si](C)(C)C(C)(C)C | inactive |
| S=C=Nc1ccc(N=C=S)cc1 | inactive |
| COc1ccc([Si](C)(C)[C@@H]2[C@@H](CCn3cc(CCO)nn3)O[C@]3(C(=O)N(Cc4ccc(N5C(=O)c6cccc7cccc5c67)cc4)c4ccccc43)[C@H]2C)cc1 | active |
| COc1ccc(NC(=O)Nc2ccc3c(c2)CC(=O)N([C@H](C)CO)C[C@@H](C)[C@@H](CN(C)S(=O)(=O)c2cn(C)cn2)O3)cc1 | inactive |
| C[C@@H]1CCCCO[C@@H](CN(C)C(=O)Nc2ccc(C(F)(F)F)cc2)[C@H](C)CN([C@@H](C)CO)C(=O)c2cc(NC(=O)c3ccncc3)ccc2O1 | inactive |
| C[C@@H]1CCCCO[C@@H](CN(C)C(=O)Nc2ccccc2)[C@H](C)CN([C@H](C)CO)C(=O)c2cc(NC(=O)Nc3ccc(C(F)(F)F)cc3)ccc2O1 | inactive |

| SMILES | cytotoxicity call |
| --- | --- |
| CCCCC(CC)COC(=O)c1ccccc1O (stereo unspecified) | inactive |
| C[C@@H]1CN([C@H](C)CO)C(=O)Cc2cc(NC(=O)Cc3ccccc3)ccc2O[C@H]1CN(C)Cc1ccc(Cl)c(Cl)c1 | inactive |
| CC(C)NC(=O)N(C)C[C@@H]1Oc2ccc(NS(=O)(=O)c3ccc(F)cc3)cc2C(=O)N([C@@H](C)CO)C[C@H]1C | inactive |
| Cc1noc(C)c1S(=O)(=O)Nc1ccc2c(c1)C(=O)N([C@@H](C)CO)C[C@H](C)[C@@H](CN(C)C(=O)Nc1ccccc1)OCCCC[C@H](C)O2 | inactive |
| C[C@@H]1CN([C@@H](C)CO)C(=O)Cc2cc(NC(=O)CCN3CCOCC3)ccc2O[C@@H]1CN(C)Cc1ccc2c(c1)OCO2 | inactive |
| CC[C@@H](CN)Cc1ccccc1 | inactive |
| C[C@@H]1CN([C@H](C)CO)C(=O)c2cc(NC(=O)c3ccncc3)ccc2O[C@@H](C)CCCCO[C@H]1CN(C)S(=O)(=O)c1ccc(Cl)cc1 | active |
| C[C@@H]1CCCCO[C@@H](CN(C)C(=O)Nc2ccccc2)[C@H](C)CN([C@@H](C)CO)C(=O)c2cc(NC(=O)Nc3cccc4ccccc34)ccc2O1 | inactive |
| NC(=O)c1ccnc(Cl)c1 | inactive |
| C=CCNC(N)=S | inactive |
| COC1C=COC2(C)Oc3c(C)c(O)c4c(O)c(c(C=NN5CCN(C6CCCC6)CC5)c(O)c4c3C2=O)NC(=O)C(C)=CC=CC(C)C(O)C(C)C(O)C(C)C(OC(C)=O)C1C (stereo unspecified) | inactive |
| COc1ccc(CN(C)C[C@@H]2Oc3ccc(NC(=O)C4CC4)cc3CC(=O)N([C@@H](C)CO)C[C@@H]2C)cc1 | inactive |
| C[C@H](CO)N1C[C@H](C)[C@H](CN(C)S(=O)(=O)c2ccccc2)Oc2ncc(-c3cccc(F)c3)cc2C1=O | inactive |
| Cc1ccc(S(=O)(=O)Nc2ccc3c(c2)C(=O)N([C@@H](C)CO)C[C@@H](C)[C@H](CN(C)S(C)(=O)=O)O3)cc1 | inactive |
| CN1CCN(C(=O)C[C@H]2C[C@@H]3c4cc(NC(=O)c5ccc6c(c5)OCO6)ccc4O[C@@H]3[C@@H](CO)O2)CC1 | inactive |
